Test results as given in PubChem BioAssay AID894 (National Center for Advancing Translational Sciences (NCATS), 2007).
Among all 150,000 compounds or so, about 6,500 (4.3%) were called active. The shares of active, inactive and inconclusive entries below differ from those in the screen. Calls come from the whole dose curve; as a rule, active = well fitted inhibition curve with a large enough effect (not every such curve was filed as active); inconclusive = small, poorly fitted or top-dose-only effect, or another doubt; inactive = no such curve, though single readings can be large or run the other way. No potency is given beside an inconclusive call; the fits are too rough.

molecular target: 15-hydroxyprostaglandin dehydrogenase [NAD(+)] (Homo sapiens) (UniProt P15428); test: qHTS Assay for Inhibitors of HPGD (15-Hydroxyprostaglandin Dehydrogenase); conditions: purified HPGD, NADH fluorescence kinetic, PGE2 substrate; activity change, negative = inhibition: active compounds read low
UniProt P15428, sequence (P15428 whole entry, looked up): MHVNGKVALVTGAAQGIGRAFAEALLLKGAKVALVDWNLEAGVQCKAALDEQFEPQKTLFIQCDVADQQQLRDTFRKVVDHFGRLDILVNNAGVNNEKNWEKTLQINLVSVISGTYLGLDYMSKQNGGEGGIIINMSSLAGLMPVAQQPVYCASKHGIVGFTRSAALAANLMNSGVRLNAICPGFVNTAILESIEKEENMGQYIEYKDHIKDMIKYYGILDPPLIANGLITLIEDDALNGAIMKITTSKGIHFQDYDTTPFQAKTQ
Procedure, shortened: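 NADH formation kinetics: reaction with 30 uM PGE2 and 1 mM NAD+ (final), 20 nM enzyme, Tris-HCl pH 8 with Tween 20, after 15 min compound preincubation at room temperature. Fluorescence change, last versus first of five reads.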
% is set by controls: 0 for no effect and ±100 for the full control effect; potency is the fitted concentration of half-maximal effect; tags give direction and shape of the fitted curve.

Structure (SMILES) | Potency | activity change, negative = inhibition
CCc1cc2ccc(C)cc2nc1SCC(=O)c1ccc(NC(C)=O)cc1 | active: 8.91 µM | –
CCOC(=O)CON1C(=O)c2ccccc2C1=O | – | inactive: -3.13%
CN(C)S(=O)(=O)c1cccc(-c2nnc(SCc3ccc4c(c3)OCCO4)o2)c1 | inconclusive [inhibitor, partial curve] | –
CC(=O)Oc1ccc2c(=O)c(Oc3ccccc3)c(C)oc2c1OC(C)=O | inconclusive [inhibitor, partial curve] | –
CCCCNC(=S)Nc1ccc(-c2nc3ccc(C)cc3s2)cc1 | inconclusive [inhibitor, partial curve] | –
Cc1ccc(/C=C/C(=O)c2cc(Br)ccc2OC(=O)c2ccco2)cc1 | – | inactive: -13.8%
CN(Cc1ccccc1)c1nc(-c2ccc([N+](=O)[O-])cc2)nc2ccccc12 | – | inactive: -13.7%
COc1ccc(OC)c(NC(=O)c2cnc(Nc3ccccc3OC)c3ccccc23)c1 | inconclusive [inhibitor, single point] | –
Cc1ccc(C(=O)Nc2ccccc2N2CCN(C(=O)C(C)C)CC2)cc1C | inconclusive [inhibitor, single point] | –
O=C(c1ccc(C#CC2(O)CCCCC2)cc1)N1CCN(Cc2ccccc2)CC1 | – | inactive: -5.11%
CCOC(=O)c1sc2nc(-c3ccco3)c3c(c2c1N)CC(C)(C)OC3 | inconclusive [inhibitor, partial curve] | –
NCCC[C@@H](CC(=O)N[C@@H]1CCNC[C@H]1C(=O)N[C@H](CC(=O)N[C@@H](CCC(=O)O)CC(=O)O)Cc1c[nH]c2ccccc12)NC(=O)C[C@H](Cc1ccccc1)NC(=O)[C@@H]1CNCC[C@H]1N | – | inactive: -7.86%
CCc1cc(=O)oc2cc(OCC(=O)O)c(Cl)cc12 | inconclusive [inhibitor, partial curve] | –
COc1cccc(C2c3c(oc4ccc(F)cc4c3=O)C(=O)N2CCCN2CCOCC2)c1 (configuration not stated) | – | inactive: -6.18%
O=C1OCCN1C(=O)[C@H]1[C@H](c2ccccc2)C(c2ccccc2)=NN1c1ccccc1 | inconclusive [inhibitor, partial curve] | –
O=C(Nc1ccc(Cl)cc1)N1CCN(c2ccc3nnc(-c4ccc(F)cc4)n3n2)CC1 | inconclusive [inhibitor, single point] | –
CC(C)[C@H](CO)Nc1nc(Nc2cc(N)cc(Cl)c2)c2ncn(C(C)C)c2n1 | inconclusive [inhibitor, partial curve] | –
CCOc1cc(C2/C(=C(/O)c3ccc(OC(C)C)cc3)C(=O)C(=O)N2CCCOC)ccc1O (configuration not stated) | inconclusive [inhibitor, partial curve] | –
Cc1ccc(NCc2nc3ccccc3n2CCOc2ccccc2)cc1 | inconclusive [inhibitor, partial curve] | –
O=C(NC(Cc1c[nH]c2ccccc12)C(=O)N/N=C/c1cccc2ccccc12)c1cccs1 (configuration not stated) | – | inactive: -23.9%
COc1ccc(Br)cc1C(=O)N/N=C/c1ccc2c(c1)n(C)c(=O)n2C | inconclusive [inhibitor, single point] | –

Structure (SMILES) | Potency | activity change, negative = inhibition
CC(C)C(=O)Nc1sc2c(c1C#N)CCCCC2 | – | inactive: -13.5%
Cc1c(N=C2SCC(=O)N2/N=C\c2ccc(Br)cc2)c(=O)n(-c2ccccc2)n1C | – | inactive: -2.47%
Cc1cccc(NC(=O)CSc2nnc(NC(=O)CN3CCCCC3)s2)c1 | – | inactive: -11.4%
Cc1cccc(C)c1OCC(O)Cn1c2ccccc2c2ccccc21 (configuration not stated) | inconclusive [inhibitor, single point] | –
O=C(c1ccco1)N1CCC2(CC1)CN(c1cccc(-c3ccccc3)c1)C2 | inconclusive [inhibitor, full curve] | –
O=c1c2c3c(sc2nc2n1CCCS2)CCCC3 | inconclusive [inhibitor, partial curve] | –
O=C(Nc1nc2c(s1)CN(Cc1ccccc1)CC2)c1cccc(S(=O)(=O)N2CCc3ccccc32)c1 | – | inactive: -19.9%
Nc1nn(S(=O)(=O)c2ccccc2)cc1-c1ccc([N+](=O)[O-])cc1 | inconclusive [inhibitor, partial curve] | –
COc1cccc(C(=O)/C=C/Nc2ccc(S(=O)(=O)Nc3cnc4ccccc4n3)cc2)c1 | inconclusive [inhibitor, partial curve] | –
Cc1ccc(N=C2NC(=O)/C(=C/C=C/c3ccco3)S2)cc1C | inconclusive [inhibitor, partial curve] | –
CCOC(=O)CNC(=O)CSc1nc2ncc(Br)cc2[nH]1 | inconclusive [inhibitor, partial curve] | –
Cc1cc(C)c(NC(=O)c2cnn(C)c2)c(C)c1 | – | inactive: 1.63%
O=C(CSc1ccc2nnc(-c3ccc(Cl)cc3)n2n1)N1CCc2ccccc21 | active: 14.1 µM | –
COC(=O)c1ccc(C2Nc3ccc(/C(C)=N/NC(=O)C(OC)c4ccccc4)cc3C3C=CCC32)cc1 (configuration not stated) | inconclusive [inhibitor, single point] | –
COc1ccc(C(=O)NCCc2c[nH]c3ccccc23)cc1S(=O)(=O)N1CCOCC1 | – | inactive: 1.51%
Cc1nc(-c2ccccc2)sc1-c1nc(-c2cccs2)ncc1S(=O)(=O)c1ccccc1 | inconclusive [inhibitor, partial curve] | –
Cc1cc(-c2ccccc2)nc(N2CCC(C(=O)NC(C)C)CC2)n1 | inconclusive [inhibitor, partial curve] | –
COc1ccc(C(=O)Nc2ccc(Cl)cc2C(=O)NCCO)cc1 | inconclusive [inhibitor, single point] | –
COc1cc(C)c(NC(=S)Nc2ccc(C)c(Cl)c2)cc1OC | – | inactive: -13.4%
Cc1cccc(-c2nnc(NC(=O)c3cccs3)s2)c1 | inconclusive [inhibitor, partial curve] | –
C=CCc1ccc(OCCOCCOc2ccc(C)cc2[N+](=O)[O-])c(OC)c1 | inconclusive [inhibitor, partial curve] | –
